Measurements from PMC4336329 (PLoS ONE, 2015).
Among all 310,000 compounds or so, about 14,000 (4.5%) showed an effect of 50% or more. Effects have a minus sign here. The list shows a part of the results.

Target: human ether-à-go-go-related gene (hERG) potassium channel (human, UniProt Q12809)
Experiment: primary screen, population patch clamp on CHO cells stably expressing hERG
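Note: peak tail current of the secondary pulse compared with the same well before compound.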

Sequence of human ether-à-go-go-related gene (hERG) potassium channel (Q12809 whole entry, looked up): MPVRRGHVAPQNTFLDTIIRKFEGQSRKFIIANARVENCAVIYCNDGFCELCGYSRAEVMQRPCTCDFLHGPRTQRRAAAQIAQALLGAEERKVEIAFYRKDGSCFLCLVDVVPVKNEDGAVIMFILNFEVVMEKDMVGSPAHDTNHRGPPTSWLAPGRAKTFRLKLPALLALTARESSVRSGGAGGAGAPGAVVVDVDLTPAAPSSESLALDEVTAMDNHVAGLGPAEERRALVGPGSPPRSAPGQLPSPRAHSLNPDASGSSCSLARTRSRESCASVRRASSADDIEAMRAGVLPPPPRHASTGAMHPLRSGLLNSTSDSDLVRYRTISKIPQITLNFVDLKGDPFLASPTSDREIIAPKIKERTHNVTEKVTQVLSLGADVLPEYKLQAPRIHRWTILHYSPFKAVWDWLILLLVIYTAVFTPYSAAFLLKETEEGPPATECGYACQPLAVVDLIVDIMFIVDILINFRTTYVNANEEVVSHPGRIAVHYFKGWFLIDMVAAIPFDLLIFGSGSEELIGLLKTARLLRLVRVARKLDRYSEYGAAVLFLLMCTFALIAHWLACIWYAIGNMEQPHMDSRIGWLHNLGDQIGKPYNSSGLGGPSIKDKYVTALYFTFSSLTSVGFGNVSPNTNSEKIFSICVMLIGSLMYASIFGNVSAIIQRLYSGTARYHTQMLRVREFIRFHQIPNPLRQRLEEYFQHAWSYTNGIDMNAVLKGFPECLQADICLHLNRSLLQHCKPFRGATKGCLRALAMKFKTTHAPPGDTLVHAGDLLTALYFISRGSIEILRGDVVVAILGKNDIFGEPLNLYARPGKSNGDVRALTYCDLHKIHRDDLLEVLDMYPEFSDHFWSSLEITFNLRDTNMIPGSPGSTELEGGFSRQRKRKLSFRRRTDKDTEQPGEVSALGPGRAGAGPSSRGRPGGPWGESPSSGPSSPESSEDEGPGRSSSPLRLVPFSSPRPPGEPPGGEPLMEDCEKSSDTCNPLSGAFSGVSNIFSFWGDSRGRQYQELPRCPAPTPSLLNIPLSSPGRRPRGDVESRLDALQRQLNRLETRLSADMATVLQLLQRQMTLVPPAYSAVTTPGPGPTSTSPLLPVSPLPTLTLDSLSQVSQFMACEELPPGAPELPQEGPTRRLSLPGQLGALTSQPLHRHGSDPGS

Row | Structure (SMILES) | hERG current change (%, negative = inhibition) at 10uM
1 | Cc1ccc(C)c(N2CCN(C(=O)Nc3ccc4c(c3)N(C)C(=O)CS4)CC2)c1 | -21.8%
2 | CCOC(=O)CC(NS(=O)(=O)c1ccc2[nH]cc(C(=O)O)c(=O)c2c1)c1ccc(OCC)c(OC)c1 (centres unmarked) | -1.02%
3 | Cc1ccc(Sc2ccc(C(=O)N(C)C)cc2[N+](=O)[O-])cc1 | -22.1%
4 | Cc1cccc(OCC(O)CN2CCc3ccccc3C2)c1.Cl (centres unmarked) | -38%
5 | CC(C)(C)OC(=O)CNC(=O)c1nc[nH]c1C(=O)NCc1ccccc1 | -22.8%
6 | C=CCn1c(SCc2c(C)noc2C)nnc1C1COc2ccccc2O1 (centres unmarked) | -9.87%
7 | Cn1c(-c2sc3cc(C(F)(F)F)cnc3c2-c2cccs2)n[nH]c1=S | 18.1%
8 | COc1ccc2[nH]c(C)c(CCNCc3cn(C)c4ccccc34)c2c1.O=C(O)C(=O)O | -27.8%
9 | CC(C)CCNC(=O)c1ccc2c(c1)N(C)C(=O)c1ccccc1S2 | -44.6%
10 | CCCCN(C)CCCNC(=O)CN1N=C(c2ccc(Cl)cc2)CCC1=O | -56.7%
11 | O=C(COc1ncnc2cc([N+](=O)[O-])ccc12)NCCc1ccc(Cl)cc1 | -21.6%
12 | O=C(NCC1CCCO1)c1ccc(CSCc2cccc(F)c2)o1 (centres unmarked) | -7.59%
13 | Cc1ccc(S(=O)(=O)n2ccc3c2CCCC3=O)cc1 | 12.1%
14 | Cc1cc(C)cc(N=Cc2c(O)c3ccccc3oc2=O)c1 | 20.2%
15 | Cc1c(C(N)=O)sc(N)c1C(=O)OC(C)C | 9.72%
16 | CCNC(=S)N(CCc1c(C)[nH]c2ccc(C)cc12)Cc1ccco1 | -3.29%
17 | O=C(O)c1ccc(N2C(=O)CC(N3C(=O)/C(=C/c4ccc(Cl)cc4)SC3=S)C2=O)cc1 (centres unmarked) | 9.83%
18 | Cc1ccc(C(=O)NC(C)c2ccccc2)o1 (centres unmarked) | -5.64%
19 | O=C(COC(=O)c1ccc[nH]c1=O)NCCc1ccc(F)cc1 | -4.88%
20 | COc1ccc(C(=O)NC2CCN(C(=S)NCc3ccco3)CC2)cc1 | -29.6%
21 | Nc1c(C(=O)Nc2ccc(Cl)c(C(=O)O)c2)sc2nc3c(cc12)CCCC3 | -3.17%
22 | COc1cccc(C2(c3cccc(OC)c3)CC2C(=O)Nc2ccccc2Cl)c1 (centres unmarked) | 14%
23 | C=CCc1cccc(CNc2nc3ccccc3n2C(C)C)c1O | -15.8%

Row | Structure (SMILES) | hERG current change (%, negative = inhibition) at 10uM
24 | CC(=O)c1cccc(OCc2cc(C(=O)N3CCC(N4CCCCC4)CC3)no2)c1 | -20.7%
25 | COc1ccccc1NC(=O)c1cnc(Nc2ccccc2OC)c2ccccc12 | 2.95%
26 | O=C(NCCc1ccccc1)c1coc(=O)c(Br)c1 | 5.91%
27 | Cc1nc2ccccc2n1S(=O)(=O)c1cc(C(=O)O)ccc1Cl | 17%
28 | CC1CCN(C(=O)C2CCN(CC(C)c3ccccc3)CC2)CC1.O=C(O)C(=O)O (centres unmarked) | -13.5%
29 | CCN(CC(=O)NC1CCS(=O)(=O)C1)c1ccc(S(C)(=O)=O)cc1[N+](=O)[O-] (centres unmarked) | -7.45%
30 | CCCCn1nnnc1NCc1ccc(OC)c(OC)c1 | 18.3%
31 | CCC1CCC(NC(=O)Nc2cccc(OC)c2)CC1 (centres unmarked) | 10.1%
32 | C[C@H](NC(=O)c1[nH]cnc1C(=O)Nc1ccccc1)C(=O)OC(C)(C)C | 4.12%
33 | CC(C)CCn1cnc2c1c(=O)n(C)c(=O)n2C | -9.74%
34 | Cc1cccc(-n2ccnc2SCC(=O)Nc2cc(C)on2)c1 | 2.47%
35 | CN1CCN(C2=CC(=O)OC23CCCCC3)CC1 | 15.2%
36 | COc1cccc2sc(Nc3nnc(-c4cccs4)o3)nc12 | 4.96%
37 | CCC(C(=O)NCCCN1CCCCCC1)n1nc(C)c2sc3ccccc3c2c1=O (centres unmarked) | 12.5%
38 | O=C(NCC1CCCO1)c1cc(S(=O)(=O)N2CCCC2)c(Cl)cc1Cl (centres unmarked) | 10.1%
39 | COc1cccc(C(=O)NNC(=O)c2cccc(F)c2)c1 | 20.5%
40 | CC[n+]1c(/C=C/N(C)c2ccccc2)oc2ccccc21.O=S(=O)([O-])CCO | 0.826%
41 | Cc1ccccc1OCCSc1nc2ncnc(N)c2[nH]1 | 25.8%
42 | COC(=O)c1c(NC(=O)C2C3CCC(C3)C2C(=O)O)sc2c1CCCCC2 (centres unmarked) | 3.42%
43 | O=C(NNc1nc2c(F)cc(F)cc2s1)c1ccccc1 | 8.87%
44 | CC1Cc2ccccc2N1C(=O)CSCC(=O)O (centres unmarked) | 11.8%
45 | NC(=O)C1CCN(C(=O)CC2(CC(=O)O)CCCCC2)CC1 | 14.6%
46 | O=c1c2cnn(-c3ccc(F)cc3)c2ncn1Cc1ccc(F)cc1 | -0.17%

Row | Structure (SMILES) | hERG current change (%, negative = inhibition) at 10uM
47 | O=C1CC(c2cc3c(cc2Br)OCO3)C2=C(CCCC2=O)N1 (centres unmarked) | -3.89%
48 | CC(C(=O)NC1CCCC1)N(c1ccc(Oc2ccccc2)cc1)S(C)(=O)=O (centres unmarked) | -24.1%
49 | COc1cc(OC)c(C2=Nc3ccc(Br)cc3C(c3ccccc3)N2CC(=O)NN)cc1OC (centres unmarked) | -16.2%
50 | COc1ccccc1CNC(=O)[C@H](C)NC(=O)C1CCN(C(=O)[C@@H](N)Cc2ccccc2)CC1 | 3.46%
51 | Cc1nnc(Nc2ccc3c(c2)ncn3C)c2ccccc12 | 0.0649%
52 | COc1cc(/C=C2/C(=O)NN(c3cccc(Cl)c3)C2=O)cc(Br)c1O | 15%
53 | CCCCNC(=S)NNc1c(Cl)cc(Cl)cc1Cl | 5.71%
54 | N#C/C(=C\Nc1ccccn1)S(=O)(=O)c1ccc(Cl)cc1 | 10.2%
55 | COc1cccc(N=C(N)N=C(N)N)c1 | 17%
56 | CC(C)(C)OC(=O)NOCC(=O)N(CC(=O)c1ccccc1)Cc1ccccc1 | -2.3%
57 | O=C(Nc1ccccc1)Oc1cccc(Br)c1 | 7.36%
58 | CN(N=Nc1cccc([N+](=O)[O-])c1)c1ccccc1 | 4.55%
59 | CC1CCCN(Cc2nc3c(c(=O)n(C)c(=O)n3C)n2CC(=O)c2ccccc2)C1 (centres unmarked) | -8.71%
60 | Cc1ccc2c(c1)N(C(=O)CCC(=O)O)CCO2 | 7.39%
61 | CS(=O)(=O)NCCSCc1c(Cl)cccc1Cl | 1.77%
62 | Cc1ccc2c(cnn2C(=O)CCC(=O)NCc2ccccc2Cl)c1 | 6.52%
63 | Cc1ccc(OCCNC(=O)C2CC(=O)N(Cc3ccccc3)C2)cc1 (centres unmarked) | -16.4%
64 | Cc1ccc(C)c(N2CCN(C(=O)CCCn3c(=S)[nH]c4cc5c(cc4c3=O)OCO5)CC2)c1 | 5.9%
65 | CCCCNC(=O)COCc1cc(-c2ccc3c(c2)OCO3)on1 | -6.65%
66 | CC1CCCC(NC(=O)c2cccc(S(=O)(=O)N3CCN(c4ccccc4)CC3)c2)C1C (centres unmarked) | 6%
67 | COC(=O)c1ccc(NC(=O)CNC(=O)c2sc3ccccc3c2Cl)cc1 | -0.0337%
68 | O=C(COc1ccccc1)NCc1ccc(-n2cccc2)cc1 | 20.1%
69 | CC(C)C(=O)Nc1nc2c(c(=O)[nH]1)CCCC2 | 10.9%

Row | Structure (SMILES) | hERG current change (%, negative = inhibition) at 10uM
70 | COc1cccc(NC(=O)N2CCCC2C(=O)NCc2ccco2)c1 (centres unmarked) | 3.72%
71 | O=C(NNc1ncnc2c1cnn2-c1ccccc1)c1cccs1 | 14.6%
72 | COc1ccccc1-n1c(SCC(=O)N(C)C2CCS(=O)(=O)C2)nc2ccccc2c1=O (centres unmarked) | -7.47%
73 | COc1ccc(CCn2c(=N)c(C(=O)NC3CCCC3)cc3c(=O)n4ccccc4nc32)cc1 | -81.9%
74 | OCCC1CN(Cc2cccn2-c2ccccn2)CCN1Cc1ccccc1 (centres unmarked) | -76.5%
75 | CC(C)c1ccc(C(=O)NNC(=O)c2ccncc2)cc1 | 26.6%
76 | COC(=O)c1ccc(OS(=O)(=O)c2ccc(NC(C)=O)cc2)cc1 | -3.32%
77 | O=C(c1ccc(S(=O)(=O)N2CCCCC2)cc1)N1CCCc2ccccc21 | 2.76%
78 | Cc1cc(C(=O)CSc2nnc(N)s2)c(C)n1CCc1ccc(F)cc1 | -6.89%
79 | COc1cccc(C(=O)NNC(=O)C(=O)Nc2ccc(OC)cc2OC)c1 | 9%
80 | O=C(C1CCCN1C(=O)c1cccs1)N1CCN(Cc2ccc3c(c2)OCO3)CC1 (centres unmarked) | -6.29%
81 | COc1ccccc1N1CCN(C(=O)c2oc3c(c2C)C(=O)CC(C)(C)C3)CC1 | 10.2%
82 | COc1ccc(C(=O)N(C)CCCC2CCCC2)cc1OC1CCN(C(C)=O)CC1 | -32.2%
83 | C=CCOC(=O)C1=C(C)NC(SCC(N)=O)=C(C#N)C1c1ccc(C)cc1 (centres unmarked) | -9.19%
84 | Cc1ccc(NC(=O)C2CCN(S(=O)(=O)c3cccc(C(F)(F)F)c3)CC2)nc1 | 5.17%
85 | O=C(Nc1ccc(Br)cc1)c1cccc(-n2cnnn2)c1 | 2.19%
86 | NS(=O)(=O)c1ccc(CCNC(=O)c2cnccn2)cc1 | 15.2%
87 | Cc1cccc(-c2nc(CSCC(=O)N3CCN(c4ccccn4)CC3)c(C)o2)c1 | -41.2%
88 | COc1ccc(C(=O)NNC(=O)C2=NN(c3ccccc3)C(=O)CC2)cc1 | 8.1%
89 | CCn1c(SCC(=O)N/N=C/C=C/c2ccccc2[N+](=O)[O-])nnc1-c1ccc(Cl)cc1 | -15.6%
